Binding data for 2 molecules are collected here from paper PMC4075450.

Amino acid sequences for entries named in this document (tags omitted).
UniProt Q8S307: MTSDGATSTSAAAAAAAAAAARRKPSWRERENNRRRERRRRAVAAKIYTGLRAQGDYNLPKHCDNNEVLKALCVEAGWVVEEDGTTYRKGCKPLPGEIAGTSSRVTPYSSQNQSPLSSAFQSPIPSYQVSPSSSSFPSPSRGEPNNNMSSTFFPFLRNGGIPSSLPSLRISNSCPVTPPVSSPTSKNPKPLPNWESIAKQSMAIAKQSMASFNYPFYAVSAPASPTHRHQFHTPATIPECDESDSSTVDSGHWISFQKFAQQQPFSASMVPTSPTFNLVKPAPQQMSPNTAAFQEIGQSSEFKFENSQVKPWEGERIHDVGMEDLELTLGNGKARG

Common to all, as to assay: two-hybrid; yeast; clones grown on synthetic dropout medium without histidine (−HIS) plus 1 mM 3AT (1 or 5 mM 3AT for the ARF6 fragments); activation domain and DNA binding domain fusions
The target of assay [1] is T1, ARF7 (auxin response factor 7), yeast two-hybrid fusion (Arabidopsis thaliana) (UniProt P93022).
T1 sequence: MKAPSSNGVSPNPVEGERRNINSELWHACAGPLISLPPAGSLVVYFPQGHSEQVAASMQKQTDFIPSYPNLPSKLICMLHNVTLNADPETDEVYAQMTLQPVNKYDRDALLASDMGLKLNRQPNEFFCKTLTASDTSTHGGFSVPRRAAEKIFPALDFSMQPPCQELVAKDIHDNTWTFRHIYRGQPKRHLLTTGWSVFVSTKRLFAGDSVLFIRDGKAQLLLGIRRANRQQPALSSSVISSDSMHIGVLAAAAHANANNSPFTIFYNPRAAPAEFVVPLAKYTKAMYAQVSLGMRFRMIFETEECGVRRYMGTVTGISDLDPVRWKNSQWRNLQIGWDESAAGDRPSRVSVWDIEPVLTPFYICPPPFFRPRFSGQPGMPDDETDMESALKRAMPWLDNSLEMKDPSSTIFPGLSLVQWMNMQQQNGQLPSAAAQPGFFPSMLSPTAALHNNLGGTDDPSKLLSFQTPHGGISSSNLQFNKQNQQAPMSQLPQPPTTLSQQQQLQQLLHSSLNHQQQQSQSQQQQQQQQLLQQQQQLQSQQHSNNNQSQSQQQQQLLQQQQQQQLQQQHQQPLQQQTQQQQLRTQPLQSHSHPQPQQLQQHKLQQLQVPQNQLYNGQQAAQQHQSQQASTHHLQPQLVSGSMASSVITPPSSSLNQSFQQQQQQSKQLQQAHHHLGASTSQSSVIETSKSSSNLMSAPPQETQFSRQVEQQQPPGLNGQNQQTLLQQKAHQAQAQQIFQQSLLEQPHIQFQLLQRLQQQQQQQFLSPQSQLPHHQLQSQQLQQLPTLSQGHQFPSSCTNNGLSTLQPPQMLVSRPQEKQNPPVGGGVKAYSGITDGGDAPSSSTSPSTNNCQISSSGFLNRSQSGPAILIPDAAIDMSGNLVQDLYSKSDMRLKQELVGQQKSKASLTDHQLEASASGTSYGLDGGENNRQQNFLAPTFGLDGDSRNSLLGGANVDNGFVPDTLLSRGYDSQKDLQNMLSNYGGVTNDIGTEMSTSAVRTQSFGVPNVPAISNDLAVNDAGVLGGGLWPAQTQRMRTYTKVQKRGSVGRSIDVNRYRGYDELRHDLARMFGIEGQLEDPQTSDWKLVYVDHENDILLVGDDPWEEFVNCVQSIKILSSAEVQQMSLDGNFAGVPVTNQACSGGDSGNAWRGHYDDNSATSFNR

Assay [2] addresses T2, ARF1 (auxin response factor 1), yeast two-hybrid fusion (Arabidopsis thaliana) (UniProt Q8L7G0).
T2 sequence: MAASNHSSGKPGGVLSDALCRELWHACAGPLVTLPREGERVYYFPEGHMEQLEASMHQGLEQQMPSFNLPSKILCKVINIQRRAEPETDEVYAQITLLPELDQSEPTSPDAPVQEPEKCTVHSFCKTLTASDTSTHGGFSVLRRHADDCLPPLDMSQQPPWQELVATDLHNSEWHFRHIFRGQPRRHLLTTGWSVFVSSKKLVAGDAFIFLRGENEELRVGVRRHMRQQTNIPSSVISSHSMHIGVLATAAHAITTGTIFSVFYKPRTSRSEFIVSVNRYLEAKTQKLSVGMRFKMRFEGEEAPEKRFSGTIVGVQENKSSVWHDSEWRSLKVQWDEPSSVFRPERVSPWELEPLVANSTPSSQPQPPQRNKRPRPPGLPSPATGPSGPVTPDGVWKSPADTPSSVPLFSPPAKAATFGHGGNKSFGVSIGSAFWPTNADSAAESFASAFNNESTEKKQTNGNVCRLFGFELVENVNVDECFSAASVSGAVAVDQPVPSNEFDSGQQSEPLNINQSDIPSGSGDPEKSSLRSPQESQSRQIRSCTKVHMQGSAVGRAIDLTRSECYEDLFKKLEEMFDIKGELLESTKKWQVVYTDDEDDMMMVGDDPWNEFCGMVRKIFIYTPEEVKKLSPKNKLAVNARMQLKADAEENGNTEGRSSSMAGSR

Assay [3] concerns the target T3, ARF8 (auxin response factor 8), yeast two-hybrid fusion (Arabidopsis thaliana) (UniProt Q9FGV1).
T3 sequence: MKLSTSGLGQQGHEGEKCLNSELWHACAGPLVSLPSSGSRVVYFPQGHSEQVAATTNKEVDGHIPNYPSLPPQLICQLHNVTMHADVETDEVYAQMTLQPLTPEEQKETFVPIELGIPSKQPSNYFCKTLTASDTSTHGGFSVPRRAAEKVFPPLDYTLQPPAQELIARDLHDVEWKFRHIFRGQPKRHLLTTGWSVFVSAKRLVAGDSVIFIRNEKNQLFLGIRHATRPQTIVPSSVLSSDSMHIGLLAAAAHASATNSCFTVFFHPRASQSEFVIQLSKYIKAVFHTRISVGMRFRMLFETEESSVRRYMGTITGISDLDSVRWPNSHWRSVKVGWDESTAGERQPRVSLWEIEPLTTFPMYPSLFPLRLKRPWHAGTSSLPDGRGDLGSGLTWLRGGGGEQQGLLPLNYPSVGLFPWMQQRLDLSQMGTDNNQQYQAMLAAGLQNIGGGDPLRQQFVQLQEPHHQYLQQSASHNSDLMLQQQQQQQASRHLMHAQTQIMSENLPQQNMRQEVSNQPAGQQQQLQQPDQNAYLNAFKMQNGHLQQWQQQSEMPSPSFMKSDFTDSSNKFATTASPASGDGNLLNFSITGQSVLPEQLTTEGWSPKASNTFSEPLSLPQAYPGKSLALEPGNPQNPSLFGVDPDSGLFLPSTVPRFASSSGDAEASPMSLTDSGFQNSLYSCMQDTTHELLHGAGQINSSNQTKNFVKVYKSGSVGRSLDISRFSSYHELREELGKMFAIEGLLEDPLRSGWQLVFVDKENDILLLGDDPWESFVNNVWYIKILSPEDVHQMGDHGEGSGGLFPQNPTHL

Assay [4] addresses T4, ARF6 (auxin response factor 6), yeast two-hybrid fusion (Arabidopsis thaliana) (UniProt Q9ZTX8).
T4 sequence: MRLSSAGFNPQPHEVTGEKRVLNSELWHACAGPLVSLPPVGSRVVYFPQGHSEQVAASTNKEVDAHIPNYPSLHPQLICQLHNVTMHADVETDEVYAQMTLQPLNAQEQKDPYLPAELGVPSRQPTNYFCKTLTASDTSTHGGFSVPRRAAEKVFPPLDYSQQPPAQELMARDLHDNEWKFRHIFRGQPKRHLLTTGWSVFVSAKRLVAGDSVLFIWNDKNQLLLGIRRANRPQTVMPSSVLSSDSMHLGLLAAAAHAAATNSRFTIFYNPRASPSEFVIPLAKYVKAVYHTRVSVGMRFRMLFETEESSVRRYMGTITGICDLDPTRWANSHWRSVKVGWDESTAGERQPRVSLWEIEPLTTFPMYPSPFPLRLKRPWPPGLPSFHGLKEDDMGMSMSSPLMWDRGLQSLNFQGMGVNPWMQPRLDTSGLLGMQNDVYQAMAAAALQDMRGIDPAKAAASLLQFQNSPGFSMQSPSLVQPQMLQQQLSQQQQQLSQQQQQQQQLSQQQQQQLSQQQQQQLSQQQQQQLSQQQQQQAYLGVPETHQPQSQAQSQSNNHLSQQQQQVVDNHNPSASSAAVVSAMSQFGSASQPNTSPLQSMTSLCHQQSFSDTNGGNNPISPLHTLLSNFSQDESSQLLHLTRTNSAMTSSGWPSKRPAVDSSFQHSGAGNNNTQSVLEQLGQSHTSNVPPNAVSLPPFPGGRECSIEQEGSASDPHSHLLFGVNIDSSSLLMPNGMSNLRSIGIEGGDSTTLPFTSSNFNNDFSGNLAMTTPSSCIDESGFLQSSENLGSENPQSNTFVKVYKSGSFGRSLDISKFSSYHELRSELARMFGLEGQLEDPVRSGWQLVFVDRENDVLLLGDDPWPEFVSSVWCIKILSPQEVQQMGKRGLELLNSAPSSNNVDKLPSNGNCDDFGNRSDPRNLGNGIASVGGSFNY

Assay [5] has as its target T5, IAA3, yeast two-hybrid fusion (Arabidopsis thaliana) (UniProt Q38822).
T5 sequence: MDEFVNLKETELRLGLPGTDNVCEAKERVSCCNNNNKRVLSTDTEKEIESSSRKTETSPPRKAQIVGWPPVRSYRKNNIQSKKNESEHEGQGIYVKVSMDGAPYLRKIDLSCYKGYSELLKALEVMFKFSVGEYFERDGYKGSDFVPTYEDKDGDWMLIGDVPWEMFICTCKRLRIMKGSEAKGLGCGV

Assay [6] concerns the target T4, ARF6 (auxin response factor 6), yeast two-hybrid fusion (Arabidopsis thaliana). This is another data set of the same source.
The target in assay [7] is T6, BEE2, yeast two-hybrid fusion (Arabidopsis thaliana) (UniProt Q93VJ4).
T6 sequence: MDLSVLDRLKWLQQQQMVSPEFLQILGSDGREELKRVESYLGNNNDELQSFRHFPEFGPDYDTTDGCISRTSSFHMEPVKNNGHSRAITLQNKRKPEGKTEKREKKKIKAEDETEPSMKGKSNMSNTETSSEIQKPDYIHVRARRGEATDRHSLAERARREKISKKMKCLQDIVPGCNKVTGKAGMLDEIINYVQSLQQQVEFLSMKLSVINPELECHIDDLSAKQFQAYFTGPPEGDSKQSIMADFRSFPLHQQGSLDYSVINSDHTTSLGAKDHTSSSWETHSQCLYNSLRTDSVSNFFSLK

For assay [8], the target named is T7, HBI1, yeast two-hybrid fusion (Arabidopsis thaliana) (UniProt Q9ZPW3).
T7 sequence: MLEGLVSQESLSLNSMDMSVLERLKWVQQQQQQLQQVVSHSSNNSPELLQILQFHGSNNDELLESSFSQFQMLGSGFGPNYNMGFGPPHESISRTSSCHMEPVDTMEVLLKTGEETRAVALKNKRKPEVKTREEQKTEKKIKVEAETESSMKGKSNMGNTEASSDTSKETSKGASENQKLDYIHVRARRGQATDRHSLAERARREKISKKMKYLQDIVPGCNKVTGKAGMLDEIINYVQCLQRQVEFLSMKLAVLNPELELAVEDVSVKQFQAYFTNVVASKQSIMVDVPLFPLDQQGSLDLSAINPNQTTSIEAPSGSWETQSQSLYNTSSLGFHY

Like-named read-outs stand apart in the source and are kept apart here. No constants are given. Whether binding was seen depends on the method and setting. Some entries that bind do so weakly or less than the wild type. Tags and fused reporters may be left off the sequences shown.

As to “BZR1 (brassinazole resistant 1), yeast two-hybrid fusion (from UniProt Q8S307 1-336)”, the binding result in assay [1] is “no binding”; in assay [2], “no binding”; in assay [3], “binds”; in assay [4] it was “binds”.

B1: PAR1, yeast two-hybrid fusion (protein, UniProt Q9SJH0 1-118)
chain: MEETLATPDATRRSLSPSCSATVKSRAAGFERRTKRRLSETNASVREDREEAEEEEDEVKEKIEALQRIIPGGAALGVDALFEETAGYILSLQCQIKTIKVLTSFLQRIDQEDMKFGG
Regarding B1, the binding entry is given as “no binding” in assay [5], “no binding” in assay [6], “binds” in assay [7] and “binds” in assay [8].
